Laboratory results as given in paper PMC6077249, “Insights into Centromere DNA Bending Revealed by the Cryo-EM Structure of the Core Centromere Binding Factor 3 with Ndc10” (Cell Reports, 2017).

T1: Ndc10 D1-2 (domains 1 and 2 of Ndc10, residues 1–554) (S. cerevisiae, UniProt P32504 1-554)
T1 construct: Ndc10, S. cerevisiae, domains 1 and 2, residues 1-554, cloned from yeast genomic DNA; also called monomeric construct of Ndc10; source: S. cerevisiae (pRS426, same expression system), purified (StrepTrap HP, Mono Q, Superdex 200)
T1 sequence (looked up): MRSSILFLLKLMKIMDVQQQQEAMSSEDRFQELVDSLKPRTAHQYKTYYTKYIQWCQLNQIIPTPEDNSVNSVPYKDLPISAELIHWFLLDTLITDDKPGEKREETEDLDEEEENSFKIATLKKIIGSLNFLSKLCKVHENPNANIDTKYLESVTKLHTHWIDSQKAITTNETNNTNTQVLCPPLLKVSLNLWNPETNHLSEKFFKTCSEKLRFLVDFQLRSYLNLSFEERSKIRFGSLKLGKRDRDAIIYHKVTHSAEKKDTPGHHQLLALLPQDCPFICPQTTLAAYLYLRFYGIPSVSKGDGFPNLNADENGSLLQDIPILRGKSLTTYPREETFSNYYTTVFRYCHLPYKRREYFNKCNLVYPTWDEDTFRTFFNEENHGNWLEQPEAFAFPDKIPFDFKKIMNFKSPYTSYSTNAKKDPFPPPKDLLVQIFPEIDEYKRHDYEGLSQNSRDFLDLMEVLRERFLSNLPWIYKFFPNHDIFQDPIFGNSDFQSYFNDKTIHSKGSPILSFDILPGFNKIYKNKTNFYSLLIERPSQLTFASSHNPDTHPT

B1: Cep3ΔN (N-terminally truncated Cep3, […], lacking the Zn2Cys6 domain) (domain or fragment)
chain: not shown
notes: Cep3, S. cerevisiae, […] (Zn2Cys6 domain removed); Homodimer; 'proximal' and 'distal' monomers in the CBF3 core complex; also called (Cep3ΔN)2
B2: Ctf13 (natural protein)
chain: not shown
notes: Ctf13, S. cerevisiae F box / LRR protein
B3: Skp1 (natural protein)
chain: not shown
notes: Skp1, S. cerevisiae

Key:
[1] = molecular target: the molecule itself; experiment: cryo-EM structure; CBF3CCΔN co-expressed in S. cerevisiae and co-purified; 0.12 and 0.24 mg/ml on UltrAuFoil grids; 3.7 Å map; buffer 15 mM Tris pH 8.0, 200 mM NaCl, 2 mM DTT
[2] = molecular target: T1, Ndc10 D1-2 (domains 1 and 2 of Ndc10, …); experiment: cryo-EM structure; purified CBF3CCΔN and Ndc10 D1-2 mixed at 1:1 molar ratio, 4°C 1 hr, co-eluted on Superose 6 Increase; 0.15 mg/mL on grids; 4.2 Å map, 4.4 Å focused refinement; details: both partners purified

Binder	binding result [1]	binding result [2]
B1	binds	–
B2	–	binds
B3	–	binds
